The values below come from the supplement of paper PMC4967469.

By IC50 is meant the dose at which the fit gives 50% viability; fits outside the tested doses are given as limits. AUC sums up the same curve from the lowest dose to the 256-fold higher top dose: 1 means no effect, lower means more sensitive. Any top dose called inferred comes from the curve model; the source does not state it.

Compound in this assay: O=C1NC(=O)/C(=C\c2ccc3nccnc3c2)S1 [AS605240]
As to the kind of experiment: Viability of human cancer cell lines after 72 h of drug (GDSC screen). Conditions: top dose inferred. The method, then: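 Human cancer cell lines in 384-well plates, medium with 10% serum, drug for 72 h over a 256-fold dose range (nine 2-fold or five 4-fold steps up to the top dose). Adherent lines were fixed and stained with the nucleic acid dye Syto60, suspension lines read with resazurin; signal relative to control wells, capped at 0 and 100%. One two-parameter sigmoid per drug and line, fitted in a mixed model over all curves with the slope shared within a line.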
For the cell line “MFM-223 (breast, adherent, top dose 20 µM)”, the AUC was determined as 0.896 and the half-inhibitory concentration (IC50) (usually the point on the concentration scale where inhibition reaches its midpoint) is greater than 20 µM.

As to “MG-63 (osteosarcoma, adherent, top dose 20 µM)”, the AUC was 0.982 and the IC50 is greater than 20 µM.

As to “MHH-ES-1 (Ewing sarcoma, adherent, top dose 20 µM)”, the AUC came out at 0.788 and the IC50 is 8.66 µM.

In the case of “MHH-NB-11 (neuroblastoma, adherent, top dose 20 µM)”, the AUC came out at 0.978 and the IC50 was greater than 20 µM.

On to “MHH-PREB-1 (B-cell leukaemia, suspension, top dose 20 µM)”, for which the AUC came to 0.918 and the half-maximal inhibitory concentration (IC50) was greater than 20 µM.

For the cell line “MIA-PaCa-2 (pancreas, adherent, top dose 20 µM)”, the AUC came to 0.915 and the IC50 is greater than 20 µM.

“MKN1 (stomach, adherent, top dose 20 µM)”: the AUC was determined as 0.896 and the half-maximal inhibitory concentration (IC50) was greater than 20 µM.

As to “MKN28 (stomach, adherent, top dose 20 µM)”, the AUC is 0.968 and the IC50 is greater than 20 µM.

As for “MKN45 (stomach, adherent, top dose 20 µM)”, the AUC was 0.854 and the half-maximal inhibitory concentration (IC50) was greater than 20 µM.

For the cell line “ML-1 (thyroid, adherent, top dose 20 µM)”, the AUC was 0.972 and the IC50 was greater than 20 µM.

“ML-2 (acute myeloid leukaemia, suspension, top dose 20 µM)”: the AUC is 0.237 and the IC50 worked out at 0.241 µM.

For the cell line “MLMA (hairy cell leukaemia, semi-adherent, top dose 20 µM)”, the AUC amounted to 0.732 and the IC50 is 5.78 µM.

In the case of “MMAC-SF (melanoma, adherent, top dose 20 µM)”, the AUC came out at 0.651 and the half-inhibitory concentration (IC50) came out at 3.35 µM.

As to “MN-60 (B-cell leukaemia, suspension, top dose 20 µM)”, the AUC was 0.713 and the half-inhibitory concentration (IC50) was 5.13 µM.

With “MOG-G-CCM (glioma, adherent, top dose 20 µM)”, the AUC stood at 0.974 and the IC50 is greater than 20 µM.

As for “MOG-G-UVW (glioma, adherent, top dose 20 µM)”, the AUC came to 0.867 and the half-inhibitory concentration (IC50) came to 17.1 µM.

In the case of “MOLM-13 (acute myeloid leukaemia, suspension, top dose 20 µM)”, the AUC came out at 0.673 and the IC50 amounted to 3.66 µM.

For “MOLP-8 (myeloma, suspension, top dose 20 µM)”, the AUC turned out to be 0.542 and the 50% inhibitory concentration (IC50) stood at 1.61 µM.

In the case of “MOLT-4 (lymphoblastic leukaemia, suspension, top dose 20 µM)”, the AUC is 0.575 and the half-maximal inhibitory concentration (IC50) is 1.93 µM.

For the cell line “MOLT-13 (T-cell lymphoblastic leukaemia, suspension, top dose 20 µM)”, the AUC turned out to be 0.714 and the IC50 was 4.6 µM.

As to “MONO-MAC-6 (acute myeloid leukaemia, suspension, top dose 20 µM)”, the AUC was found to be 0.758 and the IC50 amounted to 7.34 µM.

Turning to “MPP-89 (mesothelioma, adherent, top dose 20 µM)”, the AUC was determined as 0.962 and the IC50 is greater than 20 µM.

For “MRK-nu-1 (breast, suspension, top dose 20 µM)”, the AUC was 0.989 and the 50% inhibitory concentration (IC50) was greater than 20 µM.

As for “MS751 (cervix, adherent, top dose 20 µM)”, the AUC turned out to be 0.973 and the concentration for half-maximal inhibition (IC50) was greater than 20 µM.

As to “MS-1 (small cell lung carcinoma, suspension, top dose 20 µM)”, the AUC amounted to 0.903 and the concentration for half-maximal inhibition (IC50) is greater than 20 µM.

On to “MSTO-211H (mesothelioma, adherent, top dose 20 µM)”, for which the AUC came to 0.983 and the half-maximal inhibitory concentration (IC50) is greater than 20 µM.

On to “MV-4-11 (leukaemia, suspension, top dose 20 µM)”, for which the AUC came out at 0.773 and the 50% inhibitory concentration (IC50) is 6.44 µM.

Regarding “MY-M12 (leukaemia, suspension, top dose 20 µM)”, the AUC turned out to be 0.662 and the IC50 was determined as 3.75 µM.

“MZ1-PC (pancreas, adherent, top dose 20 µM)”: the AUC is 0.473 and the IC50 was determined as 1.04 µM.

Take “MZ2-MEL (melanoma, adherent, top dose 20 µM)”: the AUC was found to be 0.197 and the 50% inhibitory concentration (IC50) is 0.13 µM.

Turning to “MZ7-mel (melanoma, adherent, top dose 20 µM)”, the AUC turned out to be 0.349 and the half-inhibitory concentration (IC50) is 0.47 µM.

Turning to “Mewo (melanoma, adherent, top dose 20 µM)”, the AUC is 0.985 and the IC50 is greater than 20 µM.

For the cell line “Mo-T (hairy cell leukaemia, suspension, top dose 20 µM)”, the AUC came out at 0.397 and the concentration for half-maximal inhibition (IC50) turned out to be 0.648 µM.

As to “NALM-6 (B-cell leukaemia, suspension, top dose 20 µM)”, the AUC came out at 0.608 and the IC50 was 2.34 µM.

Take “NAMALWA (Burkitt lymphoma, suspension, top dose 20 µM)”: the AUC stood at 0.852 and the 50% inhibitory concentration (IC50) was 11.8 µM.

Consider “NB5 (neuroblastoma, adherent, top dose 20 µM)”, for which the AUC came out at 0.855 and the IC50 amounted to 16.3 µM.

Take “NB6 (neuroblastoma, adherent, top dose 20 µM)”: the AUC came to 0.908 and the IC50 was greater than 20 µM.

For the cell line “NB7 (neuroblastoma, adherent, top dose 20 µM)”, the AUC is 0.952 and the half-maximal inhibitory concentration (IC50) is greater than 20 µM.

Regarding “NB10 (neuroblastoma, adherent, top dose 20 µM)”, the AUC turned out to be 0.972 and the concentration for half-maximal inhibition (IC50) was greater than 20 µM.

On to “NB12 (neuroblastoma, adherent, top dose 20 µM)”, for which the AUC was determined as 0.912 and the IC50 is greater than 20 µM.

As for “NB13 (neuroblastoma, adherent, top dose 20 µM)”, the AUC stood at 0.985 and the IC50 is greater than 20 µM.

Consider “NB14 (neuroblastoma, adherent, top dose 20 µM)”, for which the AUC worked out at 0.984 and the concentration for half-maximal inhibition (IC50) was greater than 20 µM.

“NB17 (neuroblastoma, adherent, top dose 20 µM)”: the AUC came to 0.978 and the IC50 was greater than 20 µM.

With “NB69 (neuroblastoma, adherent, top dose 20 µM)”, the AUC was determined as 0.274 and the IC50 turned out to be 0.312 µM.

With “NB(TU)1-10 (neuroblastoma, adherent, top dose 20 µM)”, the AUC stood at 0.977 and the IC50 is greater than 20 µM.

For the cell line “NB-4 (acute myeloid leukaemia, suspension, top dose 20 µM)”, the AUC was found to be 0.096 and the IC50 came out at 0.0868 µM.

In the case of “NCC021 (kidney, adherent, top dose 20 µM)”, the AUC amounted to 0.935 and the IC50 was greater than 20 µM.

For the cell line “NCI-H23 (lung adenocarcinoma, adherent, top dose 20 µM)”, the AUC was 0.609 and the IC50 was found to be 2.48 µM.

Regarding “NCI-H28 (mesothelioma, adherent, top dose 20 µM)”, the AUC was determined as 0.975 and the IC50 was greater than 20 µM.

For the cell line “NCI-H64 (small cell lung carcinoma, suspension, top dose 20 µM)”, the AUC is 0.91 and the IC50 worked out at 15 µM.

As to “NCI-H69 (small cell lung carcinoma, suspension, top dose 20 µM)”, the AUC worked out at 0.922 and the IC50 was greater than 20 µM.

On to “NCI-H82 (small cell lung carcinoma, suspension, top dose 20 µM)”, for which the AUC came to 0.974 and the IC50 is greater than 20 µM.

As for “NCI-H187 (small cell lung carcinoma, suspension, top dose 20 µM)”, the AUC was found to be 0.944 and the IC50 was greater than 20 µM.

On to “NCI-H196 (small cell lung carcinoma, adherent, top dose 20 µM)”, for which the AUC was 0.479 and the 50% inhibitory concentration (IC50) came to 1.09 µM.

In the case of “NCI-H209 (small cell lung carcinoma, suspension, top dose 20 µM)”, the AUC is 0.955 and the IC50 was greater than 20 µM.

On to “NCI-H211 (small cell lung carcinoma, adherent, top dose 20 µM)”, for which the AUC was 0.937 and the IC50 was greater than 20 µM.

Regarding “NCI-H226 (lung squamous cell carcinoma, adherent, top dose 20 µM)”, the AUC was 0.714 and the IC50 was found to be 5.2 µM.

In the case of “NCI-H292 (lung adenocarcinoma, adherent, top dose 20 µM)”, the AUC was 0.772 and the IC50 was 9.38 µM.

In the case of “NCI-H322M (lung adenocarcinoma, suspension, top dose 20 µM)”, the AUC was 0.839 and the IC50 worked out at 18.6 µM.

Consider “NCI-H345 (small cell lung carcinoma, suspension, top dose 20 µM)”, for which the AUC is 0.982 and the IC50 is greater than 20 µM.

For the cell line “NCI-H358 (lung adenocarcinoma, adherent, top dose 20 µM)”, the AUC was 0.677 and the IC50 turned out to be 4.14 µM.

As for “NCI-H441 (lung adenocarcinoma, adherent, top dose 20 µM)”, the AUC turned out to be 0.874 and the half-inhibitory concentration (IC50) is greater than 20 µM.

“NCI-H446 (small cell lung carcinoma, semi-adherent, top dose 20 µM)”: the AUC is 0.983 and the IC50 was greater than 20 µM.

For “NCI-H460 (large cell lung carcinoma, adherent, top dose 20 µM)”, the AUC is 0.99 and the IC50 is greater than 20 µM.

With “NCI-H510A (small cell lung carcinoma, semi-adherent, top dose 20 µM)”, the AUC was 0.959 and the half-maximal inhibitory concentration (IC50) is greater than 20 µM.
